# Measurements published in PubChem BioAssay AID1461 (National Center for Advancing Translational Sciences (NCATS), 2008).
# The campaign covered roughly 220,000 compounds. About 2,300 (1%) were called active. This list was built around the results that the source calls inconclusive (neither active nor inactive); the mix of calls is not that of the screen. Calls come from the whole dose curve; as a rule, active = well fitted inhibition curve with a large enough effect; inconclusive = small, poorly fitted or top-dose-only effect, or effect the other way; inactive = no such curve, though single readings can be large or run the other way. Potencies of inconclusive entries are left out as doubtful fits.
# Molecular target: Neuropeptide S receptor (Homo sapiens) (UniProt Q6W5P4)
# Assay: qHTS Assay for Antagonists of the Neuropeptide S Receptor: cAMP Signal Transduction; note: nearly all actives have a fitted effect of over 50% in size
# Conditions: CHO-NPSR cells, cAMP TR-FRET, antagonist mode; activity change, negative = inhibition: at 38.3 µM (top of the series) unless noted
# % is set by controls: 0 for no effect and ±100 for the full control effect; potency is the fitted concentration of half-maximal effect; tags give direction and shape of the fitted curve.
# Chain of UniProt Q6W5P4 (Q6W5P4 whole entry, looked up): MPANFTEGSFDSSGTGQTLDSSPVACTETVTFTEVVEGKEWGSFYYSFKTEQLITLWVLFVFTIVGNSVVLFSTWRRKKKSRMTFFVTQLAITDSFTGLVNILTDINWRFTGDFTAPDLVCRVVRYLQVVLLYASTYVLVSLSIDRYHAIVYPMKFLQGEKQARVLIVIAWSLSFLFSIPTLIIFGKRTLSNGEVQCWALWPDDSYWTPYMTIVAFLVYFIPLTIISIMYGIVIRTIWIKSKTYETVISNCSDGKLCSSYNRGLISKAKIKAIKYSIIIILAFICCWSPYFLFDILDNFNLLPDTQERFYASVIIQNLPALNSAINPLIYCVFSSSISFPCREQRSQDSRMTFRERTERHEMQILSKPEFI
Compound,Potency,"activity change, negative = inhibition"
CCOC(=O)N1CCC(NC(=O)c2cc3sccc3n2CC)CC1,"inconclusive [inhibitor, single point]",
CC1=CC(c2ccccc2)n2nc(N3C(=O)C4CC=CCC4C3=O)nc2N1 (configuration not stated),,inactive: -6.22% [at 7.67 µM]
COC(=O)CN(c1ccc(C)cc1)S(=O)(=O)c1ccc2c(c1)n(C)c(=O)c(=O)n2C,,inactive: -2.74% [at 46.1 µM]
N#CC1=C2SCN(Cc3ccco3)CN2C(=O)CC1c1cccc2ccccc12 (configuration not stated),,inactive: 0.848% [at 7.67 µM]
COCCN(C(=O)Cc1cccs1)C(C(=O)NC1CCCC1)c1ccc(OC)c(OC)c1 (configuration not stated),,inactive: 7.52%
OCCCNc1nc(-c2ccccc2)nc2c1oc1ccccc12,"inconclusive [inhibitor, single point]",
Cc1ccc(CO/N=C\Cc2snc(Sc3ncc(C(F)(F)F)cc3Cl)c2C#N)cc1,active: 10 µM,
CCC(C)C(NS(=O)(=O)c1ccc(C)cc1)C(=O)Oc1ccc2c3c(c(=O)oc2c1)CCC3 (configuration not stated),"inconclusive [inhibitor, partial curve]",
O=C(CC1C(=O)N(c2ccc(Cl)cc2)C(=S)N1CCc1ccncc1)Nc1ccc(F)cc1 (configuration not stated),"inconclusive [inhibitor, partial curve]",
CC1(C)NC(=O)N(c2ccc([N+](=O)[O-])c(C(F)(F)F)c2)C1=O,"inconclusive [inhibitor, single point]",
O=C(Nc1ccncc1)c1cn(-c2ccccc2)nc1-c1cccs1,"inconclusive [inhibitor, single point]",
N#Cc1ccc(S(=O)(=O)N2CCCN(c3nc4ccc(Cl)cc4s3)CC2)cc1,"inconclusive [activator, single point]",
NC(=O)c1c(NC(=O)CSc2nnc(-c3ccco3)n2-c2ccccc2)sc2c1CCC2,"inconclusive [inhibitor, single point]",
CCc1c(C)[nH]c(C(=O)OCc2ccccc2)c1C,"inconclusive [activator, single point]",
CCc1ccc(NC(=O)CN(N=Nc2nonc2C)c2nonc2C)cc1,,inactive: -14.2%
COc1ccc(NC(=S)NCc2ccc(S(N)(=O)=O)cc2)c(OC)c1,,inactive: 21.5%
CC1CN(c2cc(-c3ccccc3)c3ccccc3n2)CC(C)O1 (configuration not stated),"inconclusive [inhibitor, single point]",
CCN(CC)CCCN1C(=O)C(O)=C(C(=O)c2cc3ccccc3o2)C1c1ccccn1 (configuration not stated),"inconclusive [activator, partial curve]",
COc1ccccc1N(CC(=O)Nc1ccc2c(c1)OCO2)S(=O)(=O)c1ccccc1,"inconclusive [inhibitor, single point]",
O=C(c1ccccc1)c1sc(N2CCCCCC2)nc1-c1ccccc1,"inconclusive [inhibitor, single point]",
O=C(Nc1ccc2c(c1)OCO2)C1CCCN1C(=O)Nc1cccc(F)c1 (configuration not stated),"inconclusive [activator, single point]",

Compound,Potency,"activity change, negative = inhibition"
CCCN(C(=O)c1cc2c(s1)CCC2)c1c(N)n(Cc2ccccc2)c(=O)[nH]c1=O,,inactive: -2.23% [at 7.67 µM]
O=C(NCc1nc2ccccc2[nH]1)C1=C[C@H](C2CCCCC2)C[C@H](OCc2ccc(CO)cc2)O1,"inconclusive [activator, single point]",
Cn1c(=O)cc(SCC(=O)N2CCCC2)c2ccc(Cl)cc21,"inconclusive [inhibitor, partial curve]",
CSc1nc(-c2ccco2)cc(C(F)(F)F)c1C#N,"inconclusive [inhibitor, single point]",
Cn1c2ccccc2c2nnc(NN)nc21,,inactive: 5.07% [at 7.67 µM]
Cc1cc2ncn(-c3ncnc4sc5c(c34)CCC(C)C5)c2cc1C (configuration not stated),"inconclusive [inhibitor, partial curve]",
CC1CCCC(C)N1C(=O)CSc1nnnn1-c1cccc2c1CCCC2 (configuration not stated),"inconclusive [inhibitor, single point]",
Cc1ccc(C2CN(C)C3(C(=O)Nc4ccccc43)C23COc2ccccc2C3=O)cc1 (configuration not stated),"inconclusive [inhibitor, partial curve]",
C(=C\c1nnc(-c2cccs2)o1)/c1ccccc1,"inconclusive [inhibitor, single point]",
CCc1ccccc1NC1c2ccccc2C(=O)N1c1cc(C)ccn1 (configuration not stated),"inconclusive [inhibitor, partial curve]",
Cc1ccc(C(=O)C2=C(O)C(=O)N(CCCN3CCOCC3)C23C(=O)N(C)c2ccccc23)o1 (configuration not stated),,inactive: 7.79% [at 46.1 µM]
COc1ccccc1N1CCN(c2nnc(-c3ccc(F)cc3)c3ccccc23)CC1,"inconclusive [inhibitor, single point]",
COc1cc(/C=C(\C#N)c2ccccn2)ccc1OCc1ccc(Cl)cc1,"inconclusive [inhibitor, single point]",
Cc1ccc(S(=O)(=O)c2cc3ccccc3oc2=O)cc1,"inconclusive [inhibitor, single point]",
COc1ccc(Nc2ccc(S(=O)(=O)N3CCCCCC3)cc2[N+](=O)[O-])cc1,,inactive: -25.6% [at 46.1 µM]
CCCNS(=O)(=O)c1cccc(C(=O)NC2CCCc3ccccc32)c1 (configuration not stated),"inconclusive [inhibitor, single point]",
CCOC(=O)/C=c1\s/c(=C(\C#N)C(=O)OCC)n(-c2ccccc2)c1=O,"inconclusive [inhibitor, single point]",
Nc1ccc(C(=O)N/N=C\C=C\c2cccc([N+](=O)[O-])c2)cc1,,inactive: -28.9%
CC(N=Cc1cc([N+](=O)[O-])ccc1O)c1ccccc1 (configuration not stated),,inactive: 10.6%
COCCn1nnnc1C(c1cc2cc(OC)ccc2[nH]c1=O)N1CCC(Cc2ccccc2)CC1 (configuration not stated),"inconclusive [inhibitor, partial curve, poor fit]",
Cn1c(NC(=O)c2cccs2)cc(=O)n(C)c1=O,"inconclusive [inhibitor, single point]",
